Structures are written as SMILES.

The test system of one test is RSV-A2. Kind of test: Virus inhibition assay (plaque reduction), RSV-A2 on Hep-2 cells. The format is cell-based. To be noted: human respiratory syncytial virus, HEp-2, 72 h, treatment before, during and after infection, read-out: Residual Virus Infectivity (%) RSV-A2.
In a further test the test system is IFV-A H1N1. In words: Virus inhibition assay (focus reduction), IFV-A H1N1 on MDCK cells. It is filed as cell-based. The conditions noted are these: Influenza A virus, 20 h, read-out: Residual Virus Infectivity (%) IFV-A H1N1.
A further test concerns HCoV-OC43. Kind of test: Virus inhibition assay (focus reduction), HCoV-OC43 on MRC-5 cells. It is filed as cell-based, human coronavirus. To be noted: Betacoronavirus 1, OC43, MRC5, 20 h, treatment before, during and after infection, read-out: Residual Virus Infectivity (%) HCoV-OC43.

In the case of `CC(C)(CC(=O)O)NC(=O)c1cc(-c2ccccc2)c(=O)n2c1sc1ccc(OC3CCCCC3)cc12` [Compound 1], in the test on RSV-A2, the activity at 0.3 µM was 38% and the activity at 3 µM was 20%. For the same compound, in the test with IFV-A H1N1, the activity at 0.3 µM came to 100%, the activity at 3 µM turned out to be 56% and the activity at 33 µM worked out at 2%. In the test with HCoV-OC43, the activity at 0.3 µM stood at 100%, the activity at 3 µM came out at 73% and the activity at 33 µM was found to be 0%.
Consider `COc1ccc(-c2cc(C(=O)N[C@@H](Cc3ccc(O)cc3)C(=O)O)c3sc4ccc(OC5CCCCC5)cc4n3c2=O)cc1F` [Compound 2], for which, in the test with IFV-A H1N1, the activity at 0.3 µM turned out to be 100%, the activity at 3 µM turned out to be 100% and the activity at 33 µM was 100%.
With `O=C(NCc1ccccc1)c1cc(-c2ccccc2)c(=O)n2c1sc1ccc(OC3CCCCC3)cc12` [Compound 3], in the test with IFV-A H1N1, the activity at 0.3 µM was determined as 100%, the activity at 3 µM was determined as 100% and the activity at 33 µM is 78%. Further, in the test on HCoV-OC43, the activity at 0.3 µM stood at 83%, the activity at 3 µM was determined as 75% and the activity at 33 µM stood at 68%.
`O=C(NCC1(C(=O)O)CC1)c1cc(-c2ccccc2)c(=O)n2c1sc1ccc(OC3CCCCC3)cc12` [Compound 4]: the values for the activity at 0.3 µM with RSV-A2, in the test on IFV-A H1N1 and in the test with HCoV-OC43 were 63%, 100% and 74%, respectively. Besides, the activity at 3 µM with RSV-A2 was 57%; with IFV-A H1N1, 100%; with HCoV-OC43 it was 55%. Also, in the test with IFV-A H1N1, the activity at 33 µM came to 42%.
`O=C(N[C@@H](Cc1ccc(O)cc1)C(=O)O)c1cc(-c2ccccc2)c(=O)n2c1sc1cc(OC3CCCCC3)ccc12` [Compound 5]: in the test with RSV-A2, the activity at 0.3 µM came to 73% and the activity at 3 µM worked out at 71%. For the same compound, in the test on IFV-A H1N1, the activity at 0.3 µM came to 100%, the activity at 3 µM came out at 100% and the activity at 33 µM is 100%. In the test on HCoV-OC43, the activity at 0.3 µM came to 88% and the activity at 3 µM amounted to 81%.
On to `O=C(O)CC(NC(=O)c1cc(-c2ccccc2)c(=O)n2c1sc1ccc(OC3CCCCC3)cc12)c1ccccc1` (centres unmarked) [Compound 6], for which the activity at 0.3 µM in the test with RSV-A2 came out at 76%. Moreover, in the test with IFV-A H1N1, the activity at 0.3 µM was determined as 100%, the activity at 3 µM was determined as 100% and the activity at 33 µM was 38%. Also, in the test on HCoV-OC43, the activity at 0.3 µM worked out at 87% and the activity at 3 µM stood at 84%.
Take `C[C@H](CO)NC(=O)c1cc(-c2ccccc2)c(=O)n2c1sc1ccc(OC3CCCCC3)cc12` [Compound 7]: the values for the activity at 0.3 µM with RSV-A2, in the test with IFV-A H1N1 and in the test on HCoV-OC43 were 80%, 100% and 57%, respectively. Moreover, the activity at 3 µM with IFV-A H1N1 amounted to 83%; in the test on HCoV-OC43, 63%.
`O=C(N[C@@H](CO)C(=O)O)c1cc(-c2ccccc2)c(=O)n2c1sc1ccc(OC3CCCCC3)cc12` [Compound 8]: in the test on IFV-A H1N1, the activity at 0.3 µM was determined as 100%, the activity at 3 µM turned out to be 100% and the activity at 33 µM came out at 94%. For the same compound, in the test with HCoV-OC43, the activity at 0.3 µM is 100%, the activity at 3 µM stood at 88% and the activity at 33 µM was found to be 47%.
For the compound `O=C(N[C@@H](Cc1ccc(O)cc1)C(=O)O)c1cc(-c2ccc(Cl)cc2)c(=O)n2c1sc1ccc(OC3CCCCC3)cc12` [Compound 9], the activity at 0.3 µM came out at 96% in the test on RSV-A2, 100% with IFV-A H1N1 and 81% in the test on HCoV-OC43. Also, the activity at 3 µM in the test with RSV-A2 was determined as 89%; in the test with IFV-A H1N1, 98%; with HCoV-OC43 it was 27%. Besides, the figures for the activity at 33 µM in the test on IFV-A H1N1 and in the test on HCoV-OC43 were 50% and 0%, respectively.
As to `O=C(O)CCNC(=O)c1cc(-c2ccccc2)c(=O)n2c1sc1ccc(OC3CCCCC3)cc12` [Compound 10], in the test on RSV-A2, the activity at 0.3 µM was 100% and the activity at 3 µM came to 85%. In addition, in the test on IFV-A H1N1, the activity at 0.3 µM was 100%, the activity at 3 µM came to 100% and the activity at 33 µM turned out to be 100%. Moreover, in the test with HCoV-OC43, the activity at 0.3 µM came out at 98%, the activity at 3 µM is 75% and the activity at 33 µM worked out at 12%.
With `O=C(c1cc(-c2ccccc2)c(=O)n2c1sc1ccc(OC3CCCCC3)cc12)N1CCC[C@@H](O)C1` [Compound 11], the activity at 0.3 µM with RSV-A2 came to 62%; with IFV-A H1N1, 100%; in the test on HCoV-OC43, 100%. The activity at 3 µM was found to be 49% in the test with IFV-A H1N1 and 43% with HCoV-OC43.
For the compound `NC(=O)CCNC(=O)c1cc(-c2ccccc2)c(=O)n2c1sc1ccc(OC3CCCCC3)cc12` [Compound 12], in the test with RSV-A2, the activity at 0.3 µM turned out to be 96% and the activity at 3 µM was determined as 91%. In the test on IFV-A H1N1, the activity at 0.3 µM was 100%, the activity at 3 µM worked out at 93% and the activity at 33 µM came out at 62%. In addition, in the test on HCoV-OC43, the activity at 0.3 µM is 100%, the activity at 3 µM came to 97% and the activity at 33 µM was 94%.
Consider `O=C(NCc1ccc(O)cc1)c1cc(-c2ccccc2)c(=O)n2c1sc1ccc(OC3CCCCC3)cc12` [Compound 13], for which, in the test on IFV-A H1N1, the activity at 0.3 µM amounted to 100%, the activity at 3 µM was 100% and the activity at 33 µM turned out to be 62%.
As for `O=C(N[C@@H](Cc1ccc(O)cc1)C(=O)O)c1cc(-c2ccc(F)cc2)c(=O)n2c1sc1ccc(OC3CCCCC3)cc12` [Compound 14], in the test with RSV-A2, the activity at 0.3 µM worked out at 100% and the activity at 3 µM was determined as 99%. For the same compound, in the test on IFV-A H1N1, the activity at 0.3 µM turned out to be 100%, the activity at 3 µM was 100% and the activity at 33 µM was found to be 84%. For the same compound, in the test on HCoV-OC43, the activity at 0.3 µM is 85%, the activity at 3 µM came to 22% and the activity at 33 µM is 0%.
Regarding `O=C(N[C@@H](Cc1ccc(O)cc1)C(=O)O)c1cc(-c2ccccc2F)c(=O)n2c1sc1ccc(OC3CCCCC3)cc12` [Compound 15], in the test on IFV-A H1N1, the activity at 0.3 µM was found to be 100%, the activity at 3 µM was 100% and the activity at 33 µM turned out to be 100%. In addition, in the test with HCoV-OC43, the activity at 0.3 µM came out at 81%, the activity at 3 µM is 70% and the activity at 33 µM was determined as 41%.
In the case of `O=C(N[C@@H](Cc1ccc(O)cc1)C(=O)O)c1cc(-c2cccc(F)c2)c(=O)n2c1sc1ccc(OC3CCCCC3)cc12` [Compound 16], the activity at 0.3 µM was 100% in the test with RSV-A2, 100% in the test on IFV-A H1N1 and 87% in the test with HCoV-OC43. The values for the activity at 3 µM in the test on RSV-A2, in the test on IFV-A H1N1 and with HCoV-OC43 were 100%, 100% and 70%, respectively. Further, the activity at 33 µM with RSV-A2 (33 µM) was determined as 19%; with IFV-A H1N1 it was 100%; in the test with HCoV-OC43, 5%.
For `O=C(N[C@@H](Cc1ccc(O)cc1)C(=O)O)c1cc(-c2ccccc2)c(=O)n2c1sc1ccc(OC3CCCC3)cc12` [Compound 17], the values for the activity at 0.3 µM with RSV-A2, in the test on IFV-A H1N1 and with HCoV-OC43 were 81%, 100% and 100%, respectively. For the same compound, the results for the activity at 3 µM in the test on RSV-A2, with IFV-A H1N1 and in the test with HCoV-OC43 were 51%, 100% and 67%, respectively. Further, the figures for the activity at 33 µM in the test on IFV-A H1N1 and in the test on HCoV-OC43 were 100% and 40%, respectively.
Turning to `CC(C)C(CC(=O)O)NC(=O)c1cc(-c2ccccc2)c(=O)n2c1sc1ccc(OC3CCCCC3)cc12` (centres unmarked) [Compound 19], the figures for the activity at 0.3 µM in the test with RSV-A2, with IFV-A H1N1 and in the test on HCoV-OC43 were 73%, 100% and 92%, respectively. Moreover, the activity at 3 µM with RSV-A2 came to 22%; with IFV-A H1N1 it was 45%; in the test with HCoV-OC43, 48%.
`O=C(O)C1CCN(C(=O)c2cc(-c3ccccc3)c(=O)n3c2sc2ccc(OC4CCCCC4)cc23)C1` (centres unmarked) [Compound 20]: in the test with IFV-A H1N1, the activity at 0.3 µM was 100%, the activity at 3 µM was 100% and the activity at 33 µM is 100%. Also, in the test with HCoV-OC43, the activity at 0.3 µM was 100%, the activity at 3 µM is 59% and the activity at 33 µM was determined as 41%.
In the case of `CC(CC(=O)O)NC(=O)c1cc(-c2ccccc2)c(=O)n2c1sc1ccc(OC3CCCCC3)cc12` (centres unmarked) [Compound 21], the figures for the activity at 0.3 µM in the test on RSV-A2, in the test on IFV-A H1N1 and in the test with HCoV-OC43 were 100%, 100% and 76%, respectively. Besides, the figures for the activity at 3 µM with RSV-A2, in the test on IFV-A H1N1 and with HCoV-OC43 were 56%, 100% and 49%, respectively.
Take `CCN(CC)CCOc1ccc(-c2cc(C(=O)Oc3ccc(S(N)(=O)=O)cc3)c3sc4ccc(OC5CCCCC5)cc4n3c2=O)cc1` [Compound 22]: the values for the activity at 0.3 µM in the test with RSV-A2, in the test with IFV-A H1N1 and with HCoV-OC43 were 99%, 100% and 69%, respectively. The results for the activity at 3 µM in the test with RSV-A2, in the test on IFV-A H1N1 and with HCoV-OC43 were 68%, 100% and 40%, respectively.
As for `NS(=O)(=O)c1ccc(OC(=O)c2cc(-c3ccccc3)c(=O)n3c2sc2ccc(OC4CCCCC4)cc23)cc1` [Compound 23], the activity at 0.3 µM in the test with RSV-A2, in the test with IFV-A H1N1 and in the test on HCoV-OC43 was 100% each time. Also, the activity at 3 µM stood at 100% with RSV-A2, 73% with IFV-A H1N1 and 100% with HCoV-OC43. For the same compound, the values for the activity at 33 µM in the test on IFV-A H1N1 and in the test on HCoV-OC43 were 52% and 81%, respectively.
As for `NS(=O)(=O)c1ccc(OC(=O)c2ccc(=O)n3c2sc2ccc(OC4CCCCC4)cc23)cc1` [Compound 24], the activity at 0.3 µM was 75% with RSV-A2, 100% with IFV-A H1N1 and 100% in the test with HCoV-OC43. The results for the activity at 3 µM in the test on RSV-A2, in the test on IFV-A H1N1 and with HCoV-OC43 were 64%, 44% and 67%, respectively.

The values are drawn from article PMC12299477 (Viruses, 2025).
